# PubChem BioAssay AID881 (National Center for Advancing Translational Sciences (NCATS), 2007)
# Values joined by “and” are separate entries in the source; they are usually repeats but may differ in a detail not shown here. Identical values can stand only once. Among all 110,000 compounds or so, about 610 (0.55%) were called active. The shares of active, inactive and inconclusive entries below differ from those in the screen. The call rests on the fitted dose curve; in most records, active means well fitted inhibition curve with a large enough effect; inconclusive means small, poorly fitted or top-dose-only effect; inactive means no such curve, though single readings can be large or run the other way. Where the call is inconclusive, the potency comes from a doubtful curve fit.
# Biological target: Polyunsaturated fatty acid lipoxygenase ALOX15B (Homo sapiens) (UniProt O15296)
# Test: qHTS Assay for Inhibitors of 15-hLO-2 (15-human lipoxygenase 2); further: nearly all actives have a fitted effect of over 60% in size
# Conditions: purified 15hLO-2, xylenol orange hydroperoxide absorbance; activity change, negative = inhibition: at 57.1 µM (top of the series) unless noted
# Method in brief: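 Screening format was qHTS against 50 nM purified 15hLO-2 in Hepes pH 7.5 with detergent. Activity follows hydroperoxide formation from 45 uM arachidonic acid, measured as 573:405 nm absorbance ratio of the ferric-xylenol orange complex.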
# On the % scale 0 is the no-effect control and ±100 the full control effect; potency means the concentration at half of the fitted maximal effect; tags describe the fitted curve by direction and shape.
# UniProt O15296, sequence (O15296 whole entry, looked up): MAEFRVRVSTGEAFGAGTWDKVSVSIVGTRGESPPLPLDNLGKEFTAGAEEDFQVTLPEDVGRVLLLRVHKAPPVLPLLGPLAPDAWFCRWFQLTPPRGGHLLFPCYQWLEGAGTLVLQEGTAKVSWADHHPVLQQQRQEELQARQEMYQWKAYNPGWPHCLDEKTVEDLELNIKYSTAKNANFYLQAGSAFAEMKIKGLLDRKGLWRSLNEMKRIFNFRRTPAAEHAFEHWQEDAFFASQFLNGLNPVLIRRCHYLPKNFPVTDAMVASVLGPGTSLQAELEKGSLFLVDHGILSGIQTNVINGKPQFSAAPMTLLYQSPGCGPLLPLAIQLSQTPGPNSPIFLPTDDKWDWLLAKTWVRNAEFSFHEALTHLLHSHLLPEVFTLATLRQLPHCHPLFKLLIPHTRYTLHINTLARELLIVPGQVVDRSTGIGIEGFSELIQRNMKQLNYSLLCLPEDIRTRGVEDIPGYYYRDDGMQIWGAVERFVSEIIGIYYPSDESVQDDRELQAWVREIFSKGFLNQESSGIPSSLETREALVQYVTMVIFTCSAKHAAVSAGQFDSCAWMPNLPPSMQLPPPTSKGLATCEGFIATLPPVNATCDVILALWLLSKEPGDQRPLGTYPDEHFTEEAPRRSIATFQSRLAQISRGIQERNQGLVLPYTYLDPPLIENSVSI
Structure (SMILES),Potency,"activity change, negative = inhibition"
Cc1ccc(CSc2nc3ccccc3cc2C=O)cc1,"inconclusive: 39.8 µM [inhibitor, single point]",
CCOC(=O)c1c(-c2ccco2)csc1NC(=O)CSc1nnc(N)s1,"inconclusive: 31.6 µM [inhibitor, single point]",
N#Cc1c(-c2ccccc2)c(-c2ccccc2)nn(CC(=O)NNC(=O)Nc2ccccc2)c1=O,"inconclusive: 25.1 µM [inhibitor, single point]",
Cc1ccc(N2CCN(C(=S)c3ccc(N(C)C)cc3)CC2)cc1,"inconclusive: 15.8 µM [inhibitor, partial curve]",
CCC(=O)N(Cc1cc(=O)[nH]c2ccccc12)c1cccc(C)c1,"inconclusive: 15.8 µM [inhibitor, partial curve]",
CCOC(=O)C1(C)/C(=N/Nc2ccccc2)C(=O)C(=O)N1c1ccccc1 (stereo not drawn),"inconclusive: 39.8 µM [inhibitor, single point]",
CC(C)CNc1nnnc2c1sc1nc(N3CCOCC3)c3c(c12)CC(C)(C)SC3,"inconclusive: 10 µM [inhibitor, partial curve]",
c1ccc(-c2csc(NNC3=NCCCCC3)n2)cc1,"inconclusive: 12.6 µM [inhibitor, partial curve]",
COc1cc2c(cc1OC)C(c1ccc(-c3ccc(Cl)cc3Cl)o1)=NCC2,,inactive: -3.42%
O=C(CSc1nnc(-c2ccccn2)n1Cc1ccco1)Nc1ccc2c(c1)OCO2,"inconclusive: 0.158 µM [inhibitor, full curve, poor fit]",
CCOC(=O)CSc1nc2c(c(-c3ccc(C)o3)c1C#N)CCCC2,"inconclusive: 31.6 µM [inhibitor, single point]",
COc1ccc(CCn2c(C)cc(C(=O)CSc3nnc(N)s3)c2C)cc1,,inactive: -1.4%
CCCCn1nnc(NC(=O)c2sc3cc(Cl)ccc3c2Cl)n1,,inactive: -4.54%
O=C(c1ccc(F)cc1F)N1CCN(c2ncccn2)CC1,"inconclusive: 0.158 µM [inhibitor, full curve, poor fit]",
O=C(O)c1ccccc1NC(=S)NC(NC(=O)c1ccccc1[N+](=O)[O-])C(Cl)(Cl)Cl (stereo not drawn),"inconclusive: 10 µM [inhibitor, partial curve]",
COC(=O)c1ccc2c(c1)C(C)(C)C(/C=C/c1ccccc1O)=[N+]2C,active: 15.8 µM,
CCc1cc(-c2n[nH]c(=S)n2-c2ccccc2C)cs1,"inconclusive: 31.6 µM [inhibitor, single point]",
CCOC(=O)c1ccc(-n2[nH]c(-c3ccccc3)cc2=O)cc1,,inactive: -27.8%
CCCC[C@@H]1C[C@H]1C(NC(=O)Cc1ccccc1)c1ccc(-c2ccccc2)cc1 (stereo partly drawn),,inactive: -0.128%
O=C(NCc1ccco1)c1sc(=S)n2c1[nH]c(=O)c1ccccc12,"inconclusive: 10 µM [inhibitor, partial curve]",
CCCCCN=C(C)c1c(O)c2ccccc2oc1=O,"inconclusive: 25.1 µM [inhibitor, partial curve]",
Cc1cc(-c2ccco2)n(-c2ccccc2)n1,"inconclusive: 6.31 µM [inhibitor, full curve]",
COC(=O)CSC1=NS(=O)(=O)c2ccccc21,"inconclusive: 5.01 µM [inhibitor, full curve]",

Structure (SMILES),Potency,"activity change, negative = inhibition"
CCOc1nc2cccc(C(=O)OC(C)OC(=O)OC3CCCCC3)c2n1Cc1ccc(-c2ccccc2-c2nn[nH]n2)cc1 (stereo not drawn),"inconclusive: 25.1 µM [inhibitor, single point]",
COc1ccc(C(=O)Nc2sc3c(c2C(=O)NCc2ccco2)CCCC3)cc1OC,"inconclusive: 31.6 µM [inhibitor, single point]",
CC12CC3CC(C)(C1)CC(C(=O)NC(=S)N1CCOCC1)(C3)C2,"inconclusive: 12.6 µM [inhibitor, partial curve]",
O=C(N/N=C/c1ccc(O)cc1)/C(=C/c1ccc([N+](=O)[O-])cc1)NC(=O)c1ccccc1,"inconclusive: 31.6 µM [inhibitor, single point]",
Oc1ccc(Nc2nc3ccccc3nc2Nc2ccc(O)cc2)cc1,"inconclusive: 20 µM [inhibitor, partial curve]",
O=C(NC(NC(=S)Nc1ccc(Cl)cc1Cl)C(Cl)(Cl)Cl)c1cccc([N+](=O)[O-])c1 (stereo not drawn),"inconclusive: 15.8 µM [inhibitor, partial curve]",
O=C(Nc1nc(=S)ss1)c1ccc(Cl)cc1Cl,"inconclusive: 15.8 µM [inhibitor, partial curve]",
CC1CCC(C(C)C)C(OCC(O)CN2CCOCC2)C1 (stereo not drawn),,inactive: 2.47%
CNC[C@H](O)[C@H](O)[C@H](O)[C@H](O)CO,,inactive: 3.55% [at 25.6 µM]
COc1ccc(Cc2nnc(NC(=O)Cc3cccs3)s2)cc1,"inconclusive: 15.8 µM [inhibitor, partial curve]",
O=C(NCc1ccc(Cl)cc1)c1ccc(Br)o1,"inconclusive: 44.7 µM [inhibitor, single point]",
Cc1ccc(NC(=O)CS(=O)CC(=O)Nc2ccc(N3CCOCC3)cc2)cc1Cl (stereo not drawn),"inconclusive: 20 µM [inhibitor, partial curve]",
CCOCCCn1c(=N)c(C(N)=S)cc2c(=O)n3cccc(C)c3nc21,"inconclusive: 25.1 µM [inhibitor, single point]",
COc1ccc(-c2csc(N(CC3CCCO3)C(=O)c3cccs3)n2)cc1 (stereo not drawn),,inactive: -2.65%
CCN1C(=O)/C(=C/c2ccc(C)s2)NC1=S,"inconclusive: 25.1 µM [inhibitor, partial curve]",
CSc1ccc(/C=C2/C(C)=C(CC(=O)O)c3cc(F)ccc32)cc1,"inconclusive: 35.5 µM [inhibitor, single point]",
CC(=O)c1cccc(NC(=O)c2ccc(Br)o2)c1,"inconclusive: 39.8 µM [inhibitor, single point]",
CC1(C)CC(OC(=O)c2ccco2)CC(C)(C)N1O,"inconclusive: 12.6 µM [inhibitor, partial curve]",
COc1ccc2c(c1OC)C(=O)OC2CC(=O)c1ccc(O)c(O)c1 (stereo not drawn),,inactive: -5.69%
O=C(Nc1ccc(O)cc1)C1CC=CCC1 (stereo not drawn),"inconclusive: 7.94 µM [inhibitor, partial curve]",
COc1ccc(NC(=O)CSc2nc(N)c(C(=O)Nc3ccc(N(C)C)cc3)s2)cc1,"inconclusive: 20 µM [inhibitor, single point]",
CC(C)(C)C(=O)CNS(=O)(=O)c1ccc(S(=O)(=O)NC2CCCC2)cc1,,inactive: -2.74%
Cc1cccc(C)c1NC(=O)CC1SC2=NCCN2C1=O (stereo not drawn),"inconclusive: 15.8 µM [inhibitor, partial curve]",

Structure (SMILES),Potency,"activity change, negative = inhibition"
O=C(Cn1cnnn1)OCC(=O)c1ccc(Cl)s1,"inconclusive: 15.8 µM [inhibitor, partial curve]",
COc1ccc(CCNc2oc(COc3ccccc3F)nc2C#N)cc1,,inactive: -0.0383%
Cc1cc(=O)oc2cc(O)c(O)cc12,,inactive: 3.72%
C=Cc1c(C)c2cc3nc(cc4[nH]c(cc5nc(cc1[nH]2)C(C)=C5CCC(=O)O)c(CCC(=O)OC)c4C)[C@@]1(C)C3=CC=C(C(=O)OC)[C@H]1C(=O)OC (tested in a mixture with another compound),"inconclusive: 10 µM [inhibitor, partial curve, poor fit]",
COc1ccccc1NC(=O)c1cc2ccccc2o/c1=N\O,,inactive: -5.72%
CCCOc1ccc(N2C(=O)CC(N3CCN(c4nc5ccccc5s4)CC3)C2=O)cc1 (stereo not drawn),"inconclusive: 12.6 µM [inhibitor, partial curve]",
Fc1ccc(NC(=S)NCCc2ccccc2)c(F)c1F,"inconclusive: 31.6 µM [inhibitor, single point]",
Cc1ccc(-c2ccc(/C=C3\C(=O)ON=C3c3ccccc3)o2)c([N+](=O)[O-])c1,active: 3.98 µM,
C/C(=C\c1ccco1)C1Nc2cccc3cccc(c23)N1,"inconclusive: 2.51 µM [inhibitor, full curve]",
S=C(c1cn(CCOc2ccccc2)c2ccccc12)N1CCCC1,"inconclusive: 25.1 µM [inhibitor, single point]",
Cc1cc(C)cc(N2CCCn3c2nc2c3c(=O)n(CC(=O)OCc3ccccc3)c(=O)n2C)c1,"inconclusive: 3.16 µM [inhibitor, full curve, poor fit]",
O=C(Oc1ccc(/C=N/Nc2ccccc2)cc1)c1ccccc1,"inconclusive: 2 µM [inhibitor, full curve]",
NC(=O)NC(=O)[C@H]1CCCC[C@@H]1C(=O)O,,inactive: -1.36% [at 11.4 µM]
COCC(C)NC(=O)c1cccc(Cl)c1 (stereo not drawn),,inactive: -2.87%
O=c1c2ccccc2c(C=Nc2cccc(O)c2)c(O)n1-c1ccc2c(c1)OCO2,"inconclusive: 15.8 µM [inhibitor, partial curve]",
NC(=S)Nc1cccc2cc3ccccc3cc12,"inconclusive: 12.6 µM [inhibitor, partial curve]",
CC(=O)Nc1cccc(OCC(=O)NS(=O)(=O)c2ccc(C)cc2)c1,,inactive: -4.39%
Cc1nc(NC(=O)c2ccccc2)sc1-c1csc(Nc2ccc(F)cc2)n1,,inactive: -20.3%
O=C(O)Cn1c(O)c(C=Nc2ccccc2)sc1=S,"inconclusive: 20 µM [inhibitor, partial curve] and inconclusive: 31.6 µM [inhibitor, single point]",
Cc1ccc(S(=O)(=O)C(C#N)c2nc3ccccc3nc2N2CCCC2)cc1C (stereo not drawn),"inconclusive: 10 µM [inhibitor, partial curve]",
C[n+]1cc2c3c(ccc2c2ccc4cc5c(cc4c21)OCO5)OCO3,active: 3.98 µM and active: 5.01 µM,
CCOC(=O)CSc1nc(N)c(C(=O)Nc2ccc(N(C)C)cc2)s1,"inconclusive: 15.8 µM [inhibitor, partial curve]",
